# The list shows a part of the results.
# B1: Gal 3C (Homo sapiens), P17931 (protein)
# chain: YGAPAGPLIVPYNLPLPGGVVPRMLITILGTVKPNANRIALDFQRGNDVAFHFNPRFNENNRRVIVCNTKLDNNWGREERQSVFPFESGKPFKIQVLVEPDHFKVAVNDAHLLQYNHRVKKLNEISKLGISGDIDLTSASYTMI
# What was measured:
# Experiment in all cases: glycan array binding signal (z-score within array); higher = stronger binding
# Details in all cases: glycan notation: IUPAC condensed, linker removed
# [1] = biological target: Fuc(a1-2)Gal
# Outline: (§1)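 Arrays were curated from the Consortium for Functional Glycomics database, 3228 in total, and kept only where the protein sequence was available. Binding is expressed as a within-array Z-score. This score was averaged across arrays of the same protein sequence at different concentrations or buffers and across linkers, and negative values can be read as non-binding.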
# [2] = biological target: Fuc(a1-2)Gal(b1-3)GalNAc
# Outline: as §1
# [3] = biological target: Fuc(a1-2)Gal(b1-3)GalNAc(a1-3)[Fuc(a1-2)]Gal(b1-4)Glc
# Outline: as §1
# [4] = biological target: Fuc(a1-2)Gal(b1-3)GalNAc(a1-3)[Fuc(a1-2)]Gal(b1-4)GlcNAc
# Outline: as §1
# [5] = biological target: Fuc(a1-2)Gal(b1-3)GalNAc(b1-3)Gal
# Outline: as §1
# [6] = biological target: Fuc(a1-2)Gal(b1-3)GalNAc(b1-3)Gal(a1-4)Gal(b1-4)Glc
# Outline: as §1
# [7] = biological target: Fuc(a1-2)Gal(b1-3)GalNAc(b1-4)[Neu5Ac(a2-3)]Gal(b1-4)Glc
# Outline: as §1
# [8] = biological target: Fuc(a1-2)Gal(b1-3)GlcNAc
# Outline: as §1
# [9] = biological target: Fuc(a1-2)Gal(b1-3)GlcNAc(b1-2)Man(a1-3)[Fuc(a1-2)Gal(b1-3)GlcNAc(b1-2)Man(a1-6)]Man(b1-4)GlcNAc(b1-4)GlcNAc
# Outline: as §1
# [10] = biological target: Fuc(a1-2)Gal(b1-3)GlcNAc(b1-2)Man(a1-3)[Fuc(a1-2)Gal(b1-3)GlcNAc(b1-2)Man(a1-6)]Man(b1-4)GlcNAc(b1-4)[Fuc(a1-6)]GlcNAc
# Outline: as §1
# [11] = biological target: Fuc(a1-2)Gal(b1-3)GlcNAc(b1-3)Gal(b1-4)Glc
# Outline: as §1
# [12] = biological target: Fuc(a1-2)Gal(b1-3)GlcNAc(b1-3)GalNAc
# Outline: as §1
# [13] = biological target: Fuc(a1-2)Gal(b1-3)GlcNAc(b1-3)[Fuc(a1-2)Gal(b1-3)GlcNAc(b1-6)]GalNAc
# Outline: as §1
# [14] = biological target: Fuc(a1-2)Gal(b1-3)GlcNAc(b1-3)[Gal(b1-4)GlcNAc(b1-6)]Gal(b1-4)Glc
# Outline: as §1
# [15] = biological target: Fuc(a1-2)Gal(b1-3)GlcNAc(b1-3)[Neu5Ac(a2-6)Gal(b1-4)GlcNAc(b1-6)]Gal(b1-4)Glc
# Outline: as §1
# [16] = biological target: Fuc(a1-2)Gal(b1-3)GlcNAc6S
# Outline: as §1
# [17] = biological target: Fuc(a1-2)Gal(b1-3)[Fuc(a1-4)]GlcNAc
# Outline: as §1
# [18] = biological target: Fuc(a1-2)Gal(b1-3)[Fuc(a1-4)]GlcNAc(b1-2)Man(a1-3)[Fuc(a1-2)Gal(b1-3)[Fuc(a1-4)]GlcNAc(b1-2)Man(a1-3)]Man(b1-4)GlcNAc(b1-4)GlcNAc
# Outline: as §1
# [19] = biological target: Fuc(a1-2)Gal(b1-3)[Fuc(a1-4)]GlcNAc(b1-2)Man(a1-3)[Fuc(a1-2)Gal(b1-3)[Fuc(a1-4)]GlcNAc(b1-2)Man(a1-6)]Man(b1-4)GlcNAc(b1-4)[Fuc(a1-6)]GlcNAc(b1-4)[Fuc(a1-6)]GlcNAc
# Outline: as §1
# [20] = biological target: Fuc(a1-2)Gal(b1-3)[Fuc(a1-4)]GlcNAc(b1-3)[Fuc(a1-3)[Gal(b1-4)]GlcNAc(b1-6)]Gal(b1-4)Glc
# Outline: as §1
# [21] = biological target: Fuc(a1-2)Gal(b1-3)[Fuc(a1-4)]GlcNAc(b1-3)[Gal(b1-4)GlcNAc(b1-6)]Gal(b1-4)Glc
# Outline: as §1
# [22] = biological target: Fuc(a1-2)Gal(b1-4)Fuc(a1-3)]GlcNAc(b1-2)Man(a1-3)[Fuc(a1-2)Gal(b1-4)[Fuc(a1-3)]GlcNAc(b1-2)Man(a1-6)]Man(b1-4)GlcNAc(b1-4)GlcNAc
# Outline: as §1
# [23] = biological target: Fuc(a1-2)Gal(b1-4)Glc
# Outline: as §1
# [24] = biological target: Fuc(a1-2)Gal(b1-4)Glc6S
# Outline: as §1
# [25] = biological target: Fuc(a1-2)Gal(b1-4)GlcNAc
# Outline: as §1
# [26] = biological target: Fuc(a1-2)Gal(b1-4)GlcNAc(b1-2)Man
# Outline: as §1
# [27] = biological target: Fuc(a1-2)Gal(b1-4)GlcNAc(b1-2)Man(a1-3)[Fuc(a1-2)Gal(b1-4)GlcNAc(b1-2)Man(a1-6)]Man(b1-4)GlcNAc(b1-4)GlcNAc
# Outline: as §1
# [28] = biological target: Fuc(a1-2)Gal(b1-4)GlcNAc(b1-2)Man(a1-3)[Fuc(a1-2)Gal(b1-4)GlcNAc(b1-2)Man(a1-6)]Man(b1-4)GlcNAc(b1-4)[Fuc(a1-6)]GlcNAc
# Outline: as §1
# [29] = biological target: Fuc(a1-2)Gal(b1-4)GlcNAc(b1-2)[Fuc(a1-2)Gal(b1-4)GlcNAc(b1-4)]Man(a1-3)[Fuc(a1-2)Gal(b1-4)GlcNAc(b1-2)Man(a1-6)]Man(b1-4)GlcNAc(b1-4)GlcNAc
# Outline: as §1
# [30] = biological target: Fuc(a1-2)Gal(b1-4)GlcNAc(b1-3)Gal(b1-4)GlcNAc
# Outline: as §1
binder,measurement,setting,value
B1,glycan array binding signal (z-score),[1],-0.245
same,glycan array binding signal (z-score),[2],-0.289
same,glycan array binding signal (z-score),[3],-0.282
same,glycan array binding signal (z-score),[4],-0.314
same,glycan array binding signal (z-score),[5],-0.365
same,glycan array binding signal (z-score),[6],-0.216
same,glycan array binding signal (z-score),[7],-0.315
same,glycan array binding signal (z-score),[8],-0.253
same,glycan array binding signal (z-score),[9],-0.187
same,glycan array binding signal (z-score),[10],-0.203
same,glycan array binding signal (z-score),[11],-0.217
same,glycan array binding signal (z-score),[12],-0.272
same,glycan array binding signal (z-score),[13],-0.212
same,glycan array binding signal (z-score),[14],-0.284
same,glycan array binding signal (z-score),[15],-0.271
same,glycan array binding signal (z-score),[16],-0.191
same,glycan array binding signal (z-score),[17],-0.313
same,glycan array binding signal (z-score),[18],-0.23
same,glycan array binding signal (z-score),[19],-0.219
same,glycan array binding signal (z-score),[20],-0.367
same,glycan array binding signal (z-score),[21],-0.306
same,glycan array binding signal (z-score),[22],-0.162
same,glycan array binding signal (z-score),[23],-0.334
same,glycan array binding signal (z-score),[24],-0.193
same,glycan array binding signal (z-score),[25],-0.301
same,glycan array binding signal (z-score),[26],-0.286
same,glycan array binding signal (z-score),[27],-0.12
same,glycan array binding signal (z-score),[28],-0.313
same,glycan array binding signal (z-score),[29],-0.314
same,glycan array binding signal (z-score),[30],1.07
